Measured values: the supplement of paper PMC12067230
This is a noisy data set.

test: amyloid nucleation score relative to library mode (yeast Sup35 reporter selection) (log enrichment difference); higher = more amyloid nucleation; sequences are the first 22 residues of the Bri2 peptide extended by up to 12 random residues; details: random library (experiment): 2;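 active = nucleation score significantly above 0 at FDR 0.05; inactive = not significantly above 0 or absent from output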
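Note: [psi-pin-] Saccharomyces cerevisiae expressing SupN fusions, induced by 100 µM Cu2SO4, selected 7 d at 30 °C without adenine and uracil, scored by deep sequencing of output versus input.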

Sequence | amyloid nucleation score
EASNCFAIRHFENKFAVETLICPVYKVSEVTCKI | inactive
EASNCFAIRHFENKFAVETLICPWGCNSDMESWE | 6.17
EASNCFAIRHFENKFAVETLICPWIVPSLNDALL | inactive
EASNCFAIRHFENKFAVETLICPWYFMGYGCEEG | 6.1
EASNCFAIRHFENKFAVETLICPWYLVN | 2.86
EASNCFAIRHFENKFAVETLICPYGTGSL | inactive
EASNCFAIRHFENKFAVETLICPYHFFFSYHRWF | 2.22
EASNCFAIRHFENKFAVETLICPYMKMCNKMGFG | inactive
EASNCFAIRHFENKFAVETLICPYRLVDPSMGWS | inactive
EASNCFAIRHFENKFAVETLICPYSNKFEYSSGS | inactive
EASNCFAIRHFENKFAVETLICPYVFTPCLWVCN | 2.72
EASNCFAIRHFENKFAVETLICQALIEKRSGRGV | 0.528
EASNCFAIRHFENKFAVETLICQC | 0.693
EASNCFAIRHFENKFAVETLICQCARERSRRFEA | 6.71
EASNCFAIRHFENKFAVETLICQCGAIPCRWLGQ | 6.7
EASNCFAIRHFENKFAVETLICQCKLDLVYPGLC | 2.22
EASNCFAIRHFENKFAVETLICQCTCFGVYFSVE | 4.75
EASNCFAIRHFENKFAVETLICQDTSAWLCWPSW | 7.17
EASNCFAIRHFENKFAVETLICQDYTLRSIAIDW | inactive

same assay, conditions: random library (experiment): 3

Sequence | amyloid nucleation score
EASNCFAIRHFENKFAVETLICPVQSYVMYGRVL | 1.19
EASNCFAIRHFENKFAVETLICPVR | inactive
EASNCFAIRHFENKFAVETLICPVRPSALSSMTQ | inactive
EASNCFAIRHFENKFAVETLICPVRV | 0.0367
EASNCFAIRHFENKFAVETLICPVRVPLIWIISS | inactive
EASNCFAIRHFENKFAVETLICPVRWTRQAPEGW | 4.69
EASNCFAIRHFENKFAVETLICPVRYVLAKLSPV | inactive
EASNCFAIRHFENKFAVETLICPVSNYVRVLTGM | inactive
EASNCFAIRHFENKFAVETLICPVVSGHAYERAG | inactive
EASNCFAIRHFENKFAVETLICPVYGSTMWCLNG | 7.18
EASNCFAIRHFENKFAVETLICPVYVGETYSWLE | inactive
EASNCFAIRHFENKFAVETLICPWGRQPARRGVG | 0.749
EASNCFAIRHFENKFAVETLICPWQLLAAPYVRE | -0.384
EASNCFAIRHFENKFAVETLICPWRSGSWAREPQ | 0.461
EASNCFAIRHFENKFAVETLICPWSVRSNDSGRT | inactive
EASNCFAIRHFENKFAVETLICPYASTFNCQS | 5
EASNCFAIRHFENKFAVETLICPYCTN | 3.51
EASNCFAIRHFENKFAVETLICPYERSGGPETKV | inactive
EASNCFAIRHFENKFAVETLICPYETSGSNQGYW | inactive
EASNCFAIRHFENKFAVETLICPYGLIRCLYPLM | 0.73
EASNCFAIRHFENKFAVETLICPYGMKLPYVILV | 1.34

Sequence | amyloid nucleation score
EASNCFAIRHFENKFAVETLICPYKVQLRTLIWS | inactive
EASNCFAIRHFENKFAVETLICPYQVRLA | inactive
EASNCFAIRHFENKFAVETLICPYRTTYMAGSWW | inactive
EASNCFAIRHFENKFAVETLICPYV | 1.55
EASNCFAIRHFENKFAVETLICQAL | inactive
EASNCFAIRHFENKFAVETLICQAQGMTNGCMGA | inactive
EASNCFAIRHFENKFAVETLICQASLPCLVGVVE | inactive
EASNCFAIRHFENKFAVETLICQASVRHTPEWDS | inactive
EASNCFAIRHFENKFAVETLICQAVANESTSSHG | inactive
EASNCFAIRHFENKFAVETLICQAVEWSGRCSRG | 1.13
EASNCFAIRHFENKFAVETLICQAVLPWRVILVV | inactive
EASNCFAIRHFENKFAVETLICQCAWSGRVPWAL | 4.59
EASNCFAIRHFENKFAVETLICQCELLRVDWAW | inactive
EASNCFAIRHFENKFAVETLICQCG | inactive
EASNCFAIRHFENKFAVETLICQCPV | inactive
EASNCFAIRHFENKFAVETLICQCRAR | inactive
EASNCFAIRHFENKFAVETLICQCRVSDAICPLE | inactive
EASNCFAIRHFENKFAVETLICQDRCSRGFLWLC | inactive
EASNCFAIRHFENKFAVETLICQDRRYGICMASS | inactive
EASNCFAIRHFENKFAVETLICQDRYMWNAGYCK | inactive
